In all, about 390,000 compounds went through this assay and about 4,700 (1.2%) were called active. Inconclusive means that the source gave no clear call. Such entries were picked first, then a sample of the others. Calls come from the whole dose curve; as a rule, active = well fitted inhibition curve with a large enough effect; inconclusive = small, poorly fitted or top-dose-only effect, or another doubt; inactive = no such curve, though single readings can be large or run the other way. Potencies beside an inconclusive call are fits to weak or partial responses and may not hold up.
target: DNA polymerase eta (Homo sapiens) (UniProt Q9Y253); assay: qHTS for Inhibitors of Polymerase Eta; settings: recombinant Pol eta, fluorescent DNA replication assay; series mostly up to 114 µM
Sequence of UniProt Q9Y253 (Q9Y253 whole entry, looked up): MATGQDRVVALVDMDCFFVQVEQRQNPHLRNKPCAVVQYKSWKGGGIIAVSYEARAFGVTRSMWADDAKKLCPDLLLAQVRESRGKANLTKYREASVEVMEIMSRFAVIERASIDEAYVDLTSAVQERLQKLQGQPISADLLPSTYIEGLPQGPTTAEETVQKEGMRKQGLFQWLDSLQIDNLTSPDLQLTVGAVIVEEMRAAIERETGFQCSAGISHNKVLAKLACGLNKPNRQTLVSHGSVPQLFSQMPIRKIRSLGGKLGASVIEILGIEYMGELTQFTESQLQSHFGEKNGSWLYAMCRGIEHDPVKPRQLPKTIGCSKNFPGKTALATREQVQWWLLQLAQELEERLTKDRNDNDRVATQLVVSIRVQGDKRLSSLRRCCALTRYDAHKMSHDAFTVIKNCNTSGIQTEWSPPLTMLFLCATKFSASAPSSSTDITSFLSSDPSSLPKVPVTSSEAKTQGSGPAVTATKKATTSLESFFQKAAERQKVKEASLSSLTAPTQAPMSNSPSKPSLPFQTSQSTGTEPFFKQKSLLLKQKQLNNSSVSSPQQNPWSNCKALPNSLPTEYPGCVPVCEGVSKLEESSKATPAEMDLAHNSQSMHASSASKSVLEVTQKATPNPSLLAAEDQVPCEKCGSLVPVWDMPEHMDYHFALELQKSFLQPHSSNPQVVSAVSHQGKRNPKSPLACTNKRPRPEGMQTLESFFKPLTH
Summary of the method: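 Pol eta at 10 nM preincubated with compounds 15 min at room temperature; reaction started with fluorescent substrate (50 nM final) and read kinetically at 0 and 10 min.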
Potency is the fitted concentration of half-maximal effect; tags give direction and shape of the fitted curve.

SMILES	Potency
Cc1onc(-c2ccccc2Cl)c1C(=O)NCc1ccco1	active: 44.7 µM
Cc1ccc(C(=O)Nc2cccc(C(F)(F)F)c2)cc1NC(=O)c1nccn1C	inactive
Cc1ccccc1OCC(=O)Nc1ccc(-c2nc3cc(Cl)cc(Cl)c3o2)cc1	inactive
Cc1noc(C)c1S(=O)(=O)N(CC(=O)N1CCn2c1nc1ccccc12)c1ccc(C(C)C)cc1	inconclusive: 79.4 µM [inhibitor, partial curve, poor fit]
Cc1nn(-c2ccccc2)c(C)c1C(=O)OCC(O)=C(C#N)c1nc2ccccc2[nH]1	inconclusive: 28.2 µM [inhibitor, partial curve, poor fit]
CCN(CC)c1ccc(/C=C(\C#N)C(=O)c2ccc(Br)cc2)cc1	inconclusive: 17.8 µM [inhibitor, full curve, poor fit]
O=C(Nc1ccc2c(c1)OCO2)C1CC1	inconclusive: 15.8 µM [inhibitor, partial curve, poor fit]
O=C(O)C1Nc2c(Cl)cc(Cl)cc2C2C=CCC12 (stereo unspecified)	active: 2.82 µM
O=C(O)c1ccc(COc2ccccc2/C=C2\NC(=O)N(Cc3ccccc3F)C2=O)cc1	inconclusive: 56.2 µM [inhibitor, partial curve, poor fit]
O=C(OCC(=O)N1N=C(c2ccc(Cl)cc2)CC1c1ccco1)c1cncc(Br)c1 (stereo unspecified)	active: 44.7 µM
O=C(COC(=O)c1cc(-c2ccccc2Cl)nc2ccccc12)Nc1ncc(C(F)(F)F)cc1Cl	inconclusive: 17.8 µM [inhibitor, partial curve, poor fit]
CCOC(=O)/C(=C\Nc1ccccc1C(F)(F)F)Sc1ncc(C(F)(F)F)cc1Cl	inconclusive: 70.8 µM [inhibitor, partial curve, poor fit]
CCOC(=O)c1cc(-c2ccc(N3CCOCC3)cc2)nn1-c1ccc(F)cc1F	inconclusive: 50.1 µM [inhibitor, partial curve, poor fit]
CC1CCN(S(=O)(=O)c2ccc(NC(=O)Cc3cccs3)cc2)CC1	inconclusive: 50.1 µM [inhibitor, partial curve, poor fit]
Cc1nnc2c3ccccc3nc(Nc3ccccc3C(=O)O)n12	active: 79.4 µM
Cc1ccc(-c2nnc(Nc3ccc4c(c3)OCO4)c3ccccc23)cc1S(=O)(=O)NCCO	inconclusive: 28.2 µM [inhibitor, partial curve, poor fit]
O=C(CSc1nnc(Nc2ccccc2F)s1)NCc1ccco1	active: 14.1 µM
CC(C)(C)c1ccc(S(=O)(=O)c2cnc(SCC(=O)Nc3ccc4c(c3)OCCO4)[nH]c2=O)cc1	inconclusive: 89.1 µM [inhibitor, single point]
CCOC(=O)c1cc(-c2ccccc2)n(CCCC(=O)Nc2cccc(C)c2)c1C	inactive
CCc1nc2ccccc2n1CCCCOc1cccc(C)c1	inactive
Cc1cc(OCC(F)(F)C(F)(F)C(F)(F)C(F)(F)C(F)(F)C(F)F)nc(N)n1	inconclusive: 44.7 µM [inhibitor, partial curve, poor fit]
COc1ccc(S(=O)(=O)NCCSCc2ccco2)cc1Cl	inconclusive: 22.4 µM [inhibitor, partial curve]

SMILES	Potency
O=S(=O)(c1ccc2ccccc2c1)N1CCN(S(=O)(=O)c2c(F)cccc2F)CC1	inactive
Cc1c(Cl)cccc1NC(=S)Nc1ccccn1	inconclusive: 100 µM [inhibitor, partial curve, poor fit]
[N-]=[N+]=CC(=O)c1ccnc(C(=O)C=[N+]=[N-])c1	inconclusive: 12.6 µM [inhibitor, partial curve]
COc1ccccc1NC(=O)CCC(=O)c1ccc(-c2ccccc2)cc1	inconclusive: 14.1 µM [inhibitor, full curve, poor fit]
O=C(CNc1ccc2ccccc2c1)N/N=C/C=C/c1cccc([N+](=O)[O-])c1	active: 15.8 µM
CCN(Cc1ccccc1)C(=O)C1CCC(CNS(=O)(=O)c2ccc3c(c2)CCCC(=O)N3)CC1 (stereo unspecified)	inconclusive: 89.1 µM [inhibitor, partial curve, poor fit]
CC(C)C(C(=O)Nc1ccc2c(c1)OCCOCCOCCOCCO2)N1C(=O)c2ccccc2C1=O (stereo unspecified)	inactive
C#CCOCCOCCOCCNc1nc(N2CCN(C(=O)CCCCCCCCCCNC(=O)Cn3cc(CCCCCN)nn3)CC2)nc(N2CCN(C(=O)CCCCCCCCCCNC(=O)[C@H](CO)n3cc(CCCSC)nn3)CC2)n1	inconclusive: 89.1 µM [inhibitor, single point]
O=c1c2c3nc4ccccc4nc3n(/N=C/c3ccccn3)c2ncn1-c1ccccc1	inconclusive: 39.8 µM [inhibitor, partial curve, poor fit]
Cc1cc(C)c(S(=O)(=O)NCCn2c(C)cc3ccccc32)c(C)c1	inconclusive: 79.4 µM [inhibitor, partial curve, poor fit]
Cc1ccc(C)c(S(=O)(=O)N2CCN(C(=O)/C=C/c3ccco3)CC2)c1	active: 35.5 µM
CC(OC(=O)CSc1ccc([N+](=O)[O-])cc1)C(=O)NCc1ccccc1 (stereo unspecified)	inactive
COc1ccc2c(c1OC)C(=O)N1c3ccccc3C(=O)N(c3ccc(F)cc3)C21 (stereo unspecified)	inconclusive: 31.6 µM [inhibitor, partial curve, poor fit]
O=C(COc1ccc(Cl)cc1Cl)Nc1c(-c2cccs2)nc2ccccn12	inconclusive: 10 µM [inhibitor, partial curve, poor fit]
Cc1ccnc(NS(=O)(=O)c2ccc(NC(=O)Cc3cccs3)cc2)n1	active: 2.51 µM
CCOc1cc(S(=O)(=O)NCCc2c(C)[nH]c3ccc(C)cc23)ccc1F	inconclusive: 56.2 µM [inhibitor, partial curve, poor fit]
O=C(NCc1ccccc1)c1cnc2sc(N3CCCC3)nn2c1=O	inactive
CCCn1c(SCC(=O)N2CCc3ccccc3C2)nc(O)cc1=O	inactive
CCN(CC(=O)Nc1ccc(NC(C)=O)cc1)C(=O)/C=C/c1cn(-c2ccccc2)nc1-c1ccc(F)cc1	inconclusive: 35.5 µM [inhibitor, partial curve, poor fit]
CC(C)(O)c1ccc2c(c1)CCC1C(C)(C(=O)O)CCCC21C (stereo unspecified)	inconclusive: 28.2 µM [inhibitor, single point]
COc1ccc(/C=N\NC(=O)c2ccccc2[N+](=O)[O-])cc1COc1c(F)c(F)c(F)c(F)c1F	inconclusive: 79.4 µM [inhibitor, partial curve, poor fit]
COc1ccc(C(=O)CSc2nc(C)cc(=O)[nH]2)cc1	inactive

SMILES	Potency
Cc1ccc(Sc2ccc(N3CCCC(C(=O)Nc4ccc(F)cc4)C3)nn2)cc1 (stereo unspecified)	inactive
Nc1ccc2c(c1)C/C(=C/c1ccco1)C2=O	inconclusive: 28.2 µM [inhibitor, single point]
O=C(CN1CCN(S(=O)(=O)c2ccc(Cl)cc2)CC1)Nc1ccc2c(c1)OCO2	inconclusive: 89.1 µM [inhibitor, partial curve, poor fit]
Oc1c(Br)cc(Br)c(/C=N/n2c(-c3ccccc3)n[nH]c2=S)c1Br	active: 35.5 µM
CC(=O)c1ccc(S(=O)(=O)Oc2ccc(C(=O)O)cc2Cl)cc1	inconclusive: 35.5 µM [inhibitor, partial curve, poor fit]
NC(=O)c1c(NC(=O)CN2CCCC2)sc2c1CCCC2	inactive
O=C1c2cccc3c([N+](=O)[O-])ccc(c23)C(=O)N1O	active: 2.82 µM
CCOC(=O)c1csc(COc2ccc(OC)cc2)n1	inactive
O=C(Nc1ccccc1C(=O)NC1CC1)c1ccc([N+](=O)[O-])o1	active: 31.6 µM
O=C(O)c1cccc(N2C(=O)c3cccc4c(Cl)ccc(c34)C2=O)c1	inconclusive: 22.4 µM [inhibitor, full curve, poor fit]
Oc1ccc(Br)cc1C=Nc1ccc2c3c(cccc13)CC2	inactive
Cc1coc2c(O)cc3c(c12)OC1(N2CCCCC2)C(=O)NCCCC31 (stereo unspecified)	inconclusive: 14.1 µM [inhibitor, partial curve, poor fit]
O=C1c2ccccc2-c2onc3ccc(NCCCn4ccnc4)c1c23	active: 79.4 µM
CCOC(=O)C1=C(C)N=c2s/c(=C/c3ccc(OCC(=O)O)c(OC)c3)c(=O)n2C1c1ccc(Cl)cc1 (stereo unspecified)	active: 20 µM
CCOc1ccc2nc(SCC(=O)c3ccc(O)cc3O)sc2c1	inconclusive: 15.8 µM [inhibitor, full curve, poor fit]
Cc1nn(CC(=O)c2ccc3c(c2)OCCO3)c(=O)c(C#N)c1C	inconclusive: 56.2 µM [inhibitor, partial curve, poor fit]
O=C(Cc1ccc(S(=O)(=O)N2CCCC2)s1)Nc1nc2c(s1)CCCC2	active: 17.8 µM
Cc1nc2sc3c(O)cc(=O)[nH]c3c2c(C)c1C	inactive
COC(=O)c1sc2ncccc2c1OCc1c(Cl)cccc1Cl	inconclusive: 28.2 µM [inhibitor, single point]
COc1cccc2cc(C(=O)Nc3ccccc3C)/c(=N/NS(=O)(=O)c3ccccc3)oc12	inconclusive: 14.1 µM [inhibitor, full curve, poor fit]
COc1cccc(C(=O)CC2(O)C(=O)Nc3ccc(Cl)cc32)c1 (stereo unspecified)	inactive
O=C(CSc1nc2[nH]ncc2c(=O)[nH]1)N1CCCCC1	inconclusive: 89.1 µM [inhibitor, partial curve, poor fit]

Source: PubChem BioAssay AID588591 (National Center for Advancing Translational Sciences (NCATS), 2011)
